According to article PMC4336329 (PLoS ONE, 2015):
Out of some 310,000 compounds screened, about 14,000 (4.5%) showed an effect of 50% or more. Effects have a minus sign here. This is one part of the list.

What follows are molecules tested against human ether-à-go-go-related gene (hERG) potassium channel (human, UniProt Q12809) (assay: primary screen, population patch clamp on CHO cells stably expressing hERG).
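Further: peak tail current of the secondary pulse compared with the same well before compound.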

human ether-à-go-go-related gene (hERG) potassium channel, sequence (Q12809 whole entry, looked up): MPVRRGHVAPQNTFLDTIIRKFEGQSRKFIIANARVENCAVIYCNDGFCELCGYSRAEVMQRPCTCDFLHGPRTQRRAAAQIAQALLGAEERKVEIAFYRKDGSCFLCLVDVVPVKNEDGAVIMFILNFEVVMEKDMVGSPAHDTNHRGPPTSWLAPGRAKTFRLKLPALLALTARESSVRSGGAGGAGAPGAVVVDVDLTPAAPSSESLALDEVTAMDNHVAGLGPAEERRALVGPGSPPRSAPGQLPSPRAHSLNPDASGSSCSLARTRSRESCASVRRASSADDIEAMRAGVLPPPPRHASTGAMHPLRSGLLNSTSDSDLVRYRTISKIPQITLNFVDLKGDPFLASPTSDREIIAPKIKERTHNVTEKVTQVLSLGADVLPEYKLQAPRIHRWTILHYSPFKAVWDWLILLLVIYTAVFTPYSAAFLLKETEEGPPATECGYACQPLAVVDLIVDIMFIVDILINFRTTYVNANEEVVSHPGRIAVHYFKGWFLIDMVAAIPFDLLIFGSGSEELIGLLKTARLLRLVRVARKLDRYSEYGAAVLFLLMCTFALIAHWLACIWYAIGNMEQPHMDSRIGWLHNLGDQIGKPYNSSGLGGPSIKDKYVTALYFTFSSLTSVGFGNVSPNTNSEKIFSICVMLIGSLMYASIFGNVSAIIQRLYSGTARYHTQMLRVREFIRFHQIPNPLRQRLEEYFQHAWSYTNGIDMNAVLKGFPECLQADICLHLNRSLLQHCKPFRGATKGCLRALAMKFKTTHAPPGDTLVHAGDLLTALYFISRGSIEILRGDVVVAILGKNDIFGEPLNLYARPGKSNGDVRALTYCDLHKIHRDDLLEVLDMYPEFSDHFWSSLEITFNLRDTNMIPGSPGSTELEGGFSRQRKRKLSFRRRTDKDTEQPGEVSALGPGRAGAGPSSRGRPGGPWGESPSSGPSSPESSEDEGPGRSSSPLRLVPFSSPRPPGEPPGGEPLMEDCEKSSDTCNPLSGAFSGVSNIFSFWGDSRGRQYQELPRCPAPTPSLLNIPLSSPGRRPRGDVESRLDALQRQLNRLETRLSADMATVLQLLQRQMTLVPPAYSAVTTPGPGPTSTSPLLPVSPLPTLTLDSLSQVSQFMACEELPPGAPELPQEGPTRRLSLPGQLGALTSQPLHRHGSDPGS

Row | Structure (SMILES) | hERG current change (%, negative = inhibition) at 10uM [%]
1 | COc1ccccc1C(=O)NNC(=O)c1ccc(NC(=O)c2ccccc2)cc1 | 13.3
2 | O=C(N/N=C/c1cccs1)c1cccc2cc[nH]c12 | -6.53
3 | CCN(CC(=O)Nc1cc(Cl)ccc1C)C(=O)C1CCCCC1 | 3.73
4 | Cc1ccccc1C(=O)NCc1nnc(SCC(=O)N2CCN(c3ccccc3)CC2)n1C | 2.55
5 | COc1cccc(NC(=O)COc2ncnc3sc(C)c(C)c23)c1 | 10.1
6 | Cc1c(Br)c([N+](=O)[O-])nn1CC(=O)Nc1ccc(Cc2ccncc2)cc1 | 6.16
7 | COc1ccc(-c2noc(N3CCC(C(=O)NCc4ccc(Cl)cc4)CC3)n2)cc1 | 1.42
8 | O=S(=O)(NCCc1csc(-c2cccnc2)n1)c1ccc(Cl)s1 | -41.6
9 | CC(=O)c1ccc(COC(=O)c2ccccc2NC(=O)C(C)C)cc1 | -25.6
10 | N/C(=N\OC(=O)c1cccc(Br)c1)c1ccncc1 | -21.8
11 | CCC1Oc2ccccc2N(CC(=O)NCCCN2CCOCC2)C1=O (centres unmarked) | -4.71
12 | CC(=O)c1cccc(NC(=O)c2ccc3c(c2)CCN3S(=O)(=O)c2ccccc2)c1 | 18.4
13 | Cc1ccc(-c2ccnc(=S)[nH]2)cc1 | 17.8
14 | COc1ccc(N2CCN(C(CNC(=O)C(=O)NCCc3c[nH]c4ccccc34)c3ccco3)CC2)cc1 (centres unmarked) | -3.79
15 | O=C(c1ccc(F)cc1)N1CCOCC1 | 10.1
16 | CCOc1ccc(Nc2ccc3nonc3c2[N+](=O)[O-])cc1 | 10.6
17 | O=C(Cc1ccccc1)Nc1nnc(-c2cccc([N+](=O)[O-])c2)s1 | 5.44
18 | CC1CC(C)CN(C(=O)c2cc(S(=O)(=O)N3CCCCC3)ccc2Cl)C1 (centres unmarked) | -37.7
19 | Oc1cccc(-c2nc3ccc4ccccc4c3c3c2CCC3)c1 | 9.27

Row | Structure (SMILES) | hERG current change (%, negative = inhibition) at 10uM [%]
20 | Nc1c2c(nn1-c1ccccc1)CCC2 | 2.92
21 | Cc1cc(=O)oc(C)c1C(=O)OCC(=O)c1ccccc1 | -5.02
22 | Cc1ccc(OCC(=O)NNC(=O)CCC(=O)NCc2ccccc2)cc1 | -19.4
23 | CN1C(=O)N(C)c2cccc3cccc1c23 | 4.32
24 | CC(Cc1c[nH]c2ccccc12)C(=O)N1CCN(c2ccccc2F)CC1 (centres unmarked) | 7.75
25 | COc1ccccc1NC(=O)c1nn(C)cc1Br | 9.74
26 | Cc1cccc(C)c1OCC(=O)NNC(=O)CCNC(=O)c1ccc(Br)cc1 | -3.79
27 | CCOc1ccccc1/C=C\c1nc(O)c([N+](=O)[O-])c(=O)[nH]1 | 5.91
28 | O=C(COC(=O)CNS(=O)(=O)c1ccc2ccccc2c1)Nc1ccccc1Sc1ccccc1 | 17.8
29 | Cc1ccc(S(=O)(=O)NCCN(CCNS(=O)(=O)c2ccc(C)cc2)S(C)(=O)=O)cc1 | -5.95
30 | O=C(Nc1cccc2c1CCCC2)c1ccc(Br)o1 | -21.6
31 | CCCCN(C)C/C(O)=C(\C#N)c1nc(-c2ccccc2)cs1 | -5.98
32 | CC(C)Cc1ccc(CN2CCCC(NC(=O)CSc3nncn3C)C2)cc1 (centres unmarked) | -23.7
33 | Nc1ncnc2c1ncn2C1OC(CO)C(O)C1O (centres unmarked) | 35.7
34 | COc1ccc(NC(=O)CN(C)C(=O)CNC(=O)c2cccs2)cc1 | 5.89
35 | COc1ccc(N=C2NN=C(c3ccc4c(c3)OCCO4)CS2)cc1 | 5.68
36 | Cc1ccc2cc3c(nc2c1)N(c1ccccc1)CC3 | 2.24
37 | COc1ccc(C2C3=C(CCCC3=O)Nc3c(-c4ccccc4)c(C)nn32)cc1 (centres unmarked) | -14.1
38 | N#CCC(=O)Nc1ccc(C(=O)OCC(=O)C23CC4CC(CC(C4)C2)C3)cc1 | 12.7

Row | Structure (SMILES) | hERG current change (%, negative = inhibition) at 10uM [%]
39 | O=C(Cc1cccc2ccccc12)N1CC[C@@]2(O)CCCC[C@H]2C1 | 12.5
40 | CCOc1ccc(N2C(=O)C3CCCN3C2=O)cc1 (centres unmarked) | 10.1
41 | CCOc1ccc(NS(=O)(=O)c2ccc(C(=O)N(CC)CC(=O)NCc3cccs3)cc2)cc1 | -6.91
42 | O=S1(=O)Cc2cc3ccccc3cc2C1 | 11.7
43 | CCOC(=O)C1NN=C(C(=O)c2ccccc2)C1c1ccc(Cl)cc1 (centres unmarked) | -22.4
44 | O=C(NCc1ccccn1)C(=O)NCC(c1ccco1)N1CCOCC1 (centres unmarked) | 9.28
45 | CN(C)S(=O)(=O)c1ccc2c(c1)nc(CCC(=O)Nc1ccc3c(c1)OCO3)n2C | -0.928
46 | Cc1c(NC(=O)C23CC4CC(CC(Br)(C4)C2)C3)c(=O)n(-c2ccccc2)n1C | 15.4
47 | COCCN(C(=O)CSCc1ccccc1)c1c(N)n(Cc2ccccc2)c(=O)[nH]c1=O | -18.9
48 | O=S(=O)(c1ccc(NCCOCCO)nc1)N1CCCCC1 | 10
49 | COc1ccccc1CNC(=O)C1CCN(S(=O)(=O)c2ccc(-n3cnnn3)cc2)CC1 | -66.9
50 | Cc1ccc(C(=O)Nc2ccc(C)c(S(=O)(=O)Nc3ccccc3Cl)c2)s1 | -6.43
51 | COc1ccc(C(=O)Oc2ccc(-c3nnco3)cc2)cc1S(=O)(=O)N1CCOCC1 | -5.2
52 | C=C(C)CN1CCN(c2ccc(N3C(=O)CCCC3=O)cc2[N+](=O)[O-])CC1 | 16.9
53 | CCOC(=O)COc1nc(N(C)C)nc(N(C)C)n1 | 0.423
54 | COCCNC(C(=O)Nc1ccc(C)cc1[N+](=O)[O-])c1ccccc1 (centres unmarked) | -6.29
55 | Cc1cc(NC(=O)CN2C(=O)NC(C)(c3ccccc3)C2=O)no1 (centres unmarked) | -55.5
56 | O=C(O)c1ccc(NC(=O)c2ccccc2Br)c(NC(=O)c2ccccc2Br)c1 | 9.34
